Results on 82 compounds are retold here after PubChem BioAssay (NCI).

Several values for one entry are separate records, joined by “and”; a condition that tells them apart may be missing. Identical values can stand only once.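 How tested: cells in 96-well plates exposed to compound for 48 hours at five concentrations. Abbreviation: GI50, concentration required for 50% inhibition of growth. TGI: concentration producing complete growth inhibition.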 Peptide text beside a SMILES is read from it.

The test has as its system NCI-H322M lung. The test can be described thus: growth of human tumour cells (NCI), 48 h.
Regarding `O=C1c2ccccc2N2Oc3ccccc3C12c1ccccc1` (centres undefined), the TGI is more than 100 µM. `COC(=O)CCC(NC(=O)OC(C)(C)C)C(=O)NC(Cc1ccc(NC(=O)CCCC(C)=O)cc1)C(=O)NC(CCC(=O)OC)C(=O)OC` (centres undefined): the TGI was more than 100 µM.

`COc1ccc(-c2oc3c(OC)c(OC)cc(O)c3c(=O)c2OC)cc1` returned a TGI of more than 100 µM. For `COC(=O)Nc1nc2ccc(Oc3cccc(NC(=O)Nc4cc(C(F)(F)F)ccc4F)c3)cc2[nH]1`, the GI50 was 14.5 µM and the TGI is more than 25 µM. Regarding `O=C1CC(=O)NC(=NNS(=O)(=O)c2ccc(Cl)cc2)N1`, the TGI is more than 100 µM. Still for that read-out and setting: to `O=C(N/N=C/c1ccccc1)c1cccc2nc3ccccc3nc12` belongs more than 28.6 µM; to `O=c1oc2c(Cl)cc(Cl)cc2cc1C1=CSC2=NCCN12`, more than 100 µM; to `Cc1ccc(N/C(SCc2ccccc2)=C(\C(Cl)=C(Cl)Cl)[N+](=O)[O-])c(C)c1`, more than 100 µM. On the same count and under the same terms, to `c1ccc2c(c1)OC(N1CCCC1)c1cnc(N3CCOCC3)nc1-2` (centres undefined) belongs more than 100 µM.

Regarding `COc1ccc(C2=C(c3ccc(OC)c(OC)c3)C(=O)N3CCCC3C2)cc1` (centres undefined), the GI50 is 42.1 µM and the TGI was more than 100 µM. For the compound `COc1cc2c(cc1OC)[C@@H](Nc1ccc(F)cc1)C1COC(=O)[C@@H]1C2c1cc(OC)c(O)c(OC)c1` (some centres undefined), the TGI was more than 100 µM. Same read-out and setting: then `O=[N+]([O-])c1cc(Cl)cnc1Br`, with 25.2 µM; and `O=C1CC(NCc2ccccc2)c2c(Cl)sc(Cl)c21` (centres undefined), with more than 100 µM. The same measure, in the same setting: to `C#CC1(O)CCCCCCCCC2(CCCCCCCC1)OCCO2` belongs 34.8 µM; to `O=C1C(c2cnc3ccccc3n2)=C(O)c2ccccc21`, more than 100 µM. Same read-out and setting: to `COc1cc(C2c3cc4c(cc3[C@@H](NCCN3CCOCC3)C3COC(=O)[C@H]23)OCO4)cc(OC)c1O` (some centres undefined) belongs 31.7 µM and > 17.5 µM.

For `NC(=O)c1ccc(-c2nc(-c3ccc4c(c3)OCO4)c(-c3ccccn3)[nH]2)cc1`, the GI50 was > 25 µM and 32.3 µM; the TGI was more than 100 µM.

With `CN(C)C(=O)c1cnc2oc3ccc(O)cc3c2c1-c1ccccc1`, the GI50 was more than 25 µM and the TGI was more than 25 µM.

Take `Nc1c(C(=O)c2cccc(C#CCO)c2)cnn1-c1ccc(F)cc1`: the GI50 is more than 25 µM and the TGI is more than 25 µM.

As to `CC(=O)N(C(C)=O)c1cc2c3c(c1)CCCN3CCC2`, the TGI was more than 10 µM. On to `COc1ccc(-c2c(C#N)c(S)n(NS(=O)(=O)c3ccccc3)c(=O)c2C#N)cc1`, for which the TGI is more than 100 µM. Still for that read-out and setting: to `NS(=O)(=O)c1ccc(/C=C/c2ccc(O)cc2)cc1` belongs more than 100 µM; to `Cc1cccc(N/C(Sc2ccccc2)=C(/C(Cl)=C(Cl)Cl)[N+](=O)[O-])c1`, 69.3 µM. With `CCOC(=O)c1cc2c(n1Cc1cc(OC)c(OC)c(OC)c1)-c1oncc1CCC2`, the GI50 was 0.431 µM and the TGI is more than 100 µM.

`CC1C(C#N)(C#N)C(C#N)=C(N)C1(Cl)[N+](=O)[O-]` (centres undefined) displayed a TGI of 29.3 µM. On the same count and under the same terms, to `CCN(CC)c1oc(N(CC)CC)c(C(=O)Nc2ccccn2)c(=O)c1C(C)=O` belongs more than 100 µM.

On to `Cc1[nH]c2ccc(F)cc2c1-c1nc2c3cccnc3c3ncccc3c2[nH]1`, for which the GI50 is 0.271 µM and the TGI is more than 100 µM. With `C[C@]12CCC(=O)CC1CCCC2=O` (some centres undefined), the TGI was more than 100 µM.

Compound `C[C@@H]1CC[C@@]2(OC1)O[C@H]1C[C@H]3[C@@H]4CC[C@H]5C[C@@H](OC6OC(CO)C(OC7OC(CO)C(O)C(OC8OCC(O)C(O)C8O)C7OC7OC(CO)C(O)C(O)C7O)C(O)C6O)[C@H](O)C[C@]5(C)[C@H]4CC[C@]3(C)[C@H]1[C@@H]2C` (some centres undefined) returned a TGI of 25.7 µM.

Consider `CC1=C(CCC(C)NCc2ccc(OCCCN3CCCCC3)cc2)C(C)(C)CCC1` (centres undefined), for which the GI50 is 1.99 µM and the TGI was 4.63 µM. As for `CCOC(=O)c1nnc2c(C#N)c(-c3ccccc3)c(C)n2c1N`, the TGI is more than 100 µM. Compound `CCCCCCCCC/C=C1\CCC(CN(C)C)C1=O` (centres undefined) gave a TGI of 13 µM. For `C#CCNCCN1C(=O)c2ccc3c4c(ccc(c24)C1=O)C(=O)N(CCNCC#C)C3=O`, the GI50 was 2.58 µM and the TGI came out at 20.4 µM.

For the compound `O=C1NOC(c2ccc(O)cc2)(c2ccc(O)cc2)c2ccccc21`, the GI50 was more than 100 µM and the TGI was more than 100 µM.

Turning to `O=C(CC(Cl)=C(Cl)Cl)c1ccccc1`, the TGI is more than 100 µM. On the same count and under the same terms, to `CC(C)Oc1c(-c2ccc(F)cc2)c(O)c2c3c1oc(=O)n3C=CC2C` (centres undefined) belongs 26.3 µM. For `CN(C)c1ccc(C(=NO)c2ccc(N(C)C)cc2)cc1`, the GI50 is 6.07 µM and the TGI is more than 100 µM. On to `CNC(=O)OCc1c2ccncc2c(C)c2c1[nH]c1ccc(OC)cc12`, for which the TGI turned out to be 2.79 µM. Same read-out and setting: to `Cc1ccc2c(/C=C/c3ccc(N(C)C)cc3)ccc(C(C)C)cc1-2` belongs more than 100 µM; to `O=[N+]([O-])c1ccc(NNN=Nc2ccc(-c3nc4ccccc4s3)cc2)c([N+](=O)[O-])c1`, 69.2 µM. The same measure, in the same setting: then `CC(=O)CC1=C(OC(C)C)C2(OCCO2)C1O` (centres undefined), with more than 100 µM. With `COc1ccc(N(/C=C/C(=O)C(F)(F)F)CC(=O)c2ccc(F)cc2)cc1`, the GI50 was 26.5 µM and the TGI came to 73 µM. The matching figures for `Cc1ccc(C(=O)NC2CCC2)cc1-c1ccc(C(=O)NCC2CC2)cc1`: more than 25 µM and more than 25 µM.

The compound `c1ccc([I+]c2ccccc2)cc1` returned a TGI of more than 100 µM.

`CNC1(C(=O)O)CC1` displayed a TGI of more than 100 µM.

`OCCn1cnc2c(SCc3ccccc3)ncnc21`: the TGI was more than 100 µM.

The compound `CC(=O)OC(C)(C)CCC(=O)[C@](C)(O)[C@H]1[C@H](O)C[C@@]2(C)[C@@H]3CCc4c(cc(OC5OC(CO)C(O)C(O)C5O)c(O)c4C)C3(C)C(=O)C[C@]12C` (some centres undefined) showed a TGI of more than 100 µM.

`COc1ccc2nc3cc(Cl)ccc3c(SCC(=O)Nc3ccccc3-c3ccccc3NC(=O)CSc3c4ccc(Cl)cc4nc4ccc(OC)cc34)c2c1` returned a TGI of more than 100 µM. As for `NC(=O)Nc1cc(-c2cccc(F)c2)sc1C(=O)N[C@H]1CCCNC1`, the GI50 was 0.0886 µM and 0.225 µM; the TGI is 1.87 µM and 1.33 µM. With `Oc1c(Cl)c(Cl)c(O)c2c1CCCC2`, the TGI was 31.4 µM. Same read-out and setting: then `COC(=O)C(CC1=C(O)Nc2ccccc2N1)/C(=N/NC(N)=O)C(=O)Nc1ccccc1C` (centres undefined), with more than 100 µM; and `O=C(c1cc2c(c3ccccc13)NC1(CCCCC1)N=C2C(F)(F)F)C(F)(F)F`, with 23.8 µM. Same read-out and setting: to `CCO/C=N/C1=C(C#N)SC2=N/C(=C\c3ccccc3)C(=O)N21` belongs more than 100 µM. For the compound `N#CNC(=NCCc1c[nH]c2ccccc12)Oc1ccccc1`, the TGI is more than 100 µM.

Compound `CC1=C(C(=O)N(C)c2ccc(Cl)c(C(=O)OC(C)C)c2)SCCO1` had a TGI of more than 100 µM. Same read-out and setting: then `NC(=O)NC12CC3CC(CC(F)(C3)C1)C2`, with more than 100 µM. For the compound `CCN1C(=O)N(CC)C2C1NN=c1s/c(=C\c3ccccn3)c(=O)n12` (centres undefined), the GI50 is 4.58 µM and the TGI was more than 100 µM. As to `Cc1cnc(CNC(=O)c2c(=O)c3ccc(N4CCCN(C)CC4)nc3n3c2sc2ccccc23)cn1`, the GI50 was 10.7 µM and the TGI turned out to be 25 µM. For `Cc1[nH]c(=O)nc(Nc2ccc(Cl)cc2)c1C(=O)N1CCN(CCO)CC1`, in that order: more than 100 µM and more than 100 µM. For `COc1ccc(/C=C(\C(=O)NCc2cccnc2)S(=O)(=O)c2ccccc2)cc1OC`, in that order: 2.99 µM and 12 µM. Turning to `CC(C)NC(=O)OCc1c2c(n(C)c1COC(=O)NC(C)C)-c1ccccc1CC2`, the TGI amounted to 32.6 µM. Still for that read-out and setting: to `CC1=C(C)SC(=C2Sc3nc(O)[nH]c(=O)c3S2)S1` belongs more than 100 µM. Take `CCOC(=O)C1CCCCN1C(=O)c1ccc(Nc2cnc3cc(C(F)(F)F)ccc3n2)cc1` (centres undefined): the GI50 was 11.5 µM and the TGI is 31.6 µM. With `CCOC(=O)c1c(NC(=S)Nc2ccccc2)sc2c1CCOC2`, the TGI is more than 100 µM.

Take `CC1(C)N=C(C2CCCN2C(=O)OCc2ccccc2)OC1=O` (centres undefined): the TGI is more than 100 µM. In the case of `COC(=N)c1c(N)[n+]([O-])c2ccc(F)cc2[n+]1[O-]`, the GI50 was more than 100 µM and the TGI is more than 100 µM. With `COc1ccc(C2=CC(c3ccc(OC)cc3Br)N3C=CSC3=N2)cc1` (centres undefined), the GI50 was 23.7 µM and the TGI was 58.9 µM. The matching figures for `COc1ccc(C(=O)/C=C/c2cccc(Nc3ccnc4cc(Cl)ccc34)c2)cc1`: 2.69 µM and more than 100 µM. For `COC(=O)[C@H](Cc1ccc(O)cc1)NC(=O)[C@H](Cc1ccc(O)cc1)NC(=O)OC(C)(C)C` (HELM PEPTIDE1{[CC(C)(C)OC(=O)[*:2]].Y.Y.[CO[*:1]]}$$$$V2.0), the TGI was more than 100 µM. Regarding `Nc1ncnc2c1c(-c1ccc(Oc3ccccc3)cc1)nn2C[C@@H]1SSC[C@H]1O`, the GI50 was 2.61 µM and the TGI worked out at 15 µM.

`O=c1cc(-c2cccnc2)[nH]c2cc3c(cc12)OCO3` came in with a TGI of more than 100 µM. Still for that read-out and setting: then `COc1cc2c(c(OC)c1OC)-c1ccc(SC)cc1C(O)CC2` (centres undefined), with more than 100 µM.

Turning to `COc1cc(/C=C/C(=O)c2ccc(F)cc2)ccc1OCCCN1CCN(CC(=O)Nc2ccc(Cl)cc2C(=O)c2ccccc2Cl)CC1`, the GI50 is 27.7 µM and the TGI was more than 100 µM.

Compound `O=C(N/N=C/c1cc(Br)cc(Br)c1[O-])c1ccccc1O.O=C(N/N=C/c1cc(Br)cc(Br)c1[O-])c1ccccc1O.[Co+2]` gave a TGI of 16.7 µM. In turn, `CCOC(=O)/C=C(/C)Nc1nc2c(c(C(=O)OC)c1C#N)CCCC2` showed a TGI of more than 100 µM. Take `Cc1nn(C)c(COc2ccc(N3CCN(S(=O)(=O)N(C)C)CC3)cc2)c1-c1cccc2c(CCCOc3cccc4ccccc34)c(C(=O)O)n(CCN3CCOCC3)c12`: the GI50 was 4.59 µM and the TGI is 18.3 µM. Regarding `CCc1ccc2c(c1)C(=O)c1c-2n(CCCN=[N+]=[N-])c(=O)c2cc(OC)c(OC)cc12`, the GI50 is more than 100 µM and the TGI was more than 100 µM. Turning to `CCOC1CC(C)N(C(=O)c2ccccc2)O1` (centres undefined), the TGI was more than 100 µM. On the same count and under the same terms, then `O=C(NC(=Nc1ccccc1)SCCSC(=Nc1ccccc1)NC(=O)c1cccs1)c1cccs1`, with more than 100 µM. Regarding `O=c1c(O)c(-c2ccc(O)c(O)c2)oc2cc(O)cc(O)c12`, the GI50 was 13.2 µM and the TGI was more than 100 µM. Take `O=S(=O)(/C=C/CS(=O)(=O)c1ccccc1)c1ccccc1`: the TGI is 81.5 µM. On the same count and under the same terms, then `COc1ccc(COC2CC(OC)OC(C)C2OC(=O)c2ccccc2)cc1` (centres undefined), with more than 100 µM.
